The source of these data is paper PMC4336329 (PLoS ONE, 2015).

About 2,200 (0.71%) of roughly 310,000 compounds showed an effect of 50% or more. Effects have a minus sign here. Some of the results follow.

This assay deals with human ether-à-go-go-related gene (hERG) potassium channel (human, UniProt Q12809). The assay is described as follows: primary screen, population patch clamp on CHO cells stably expressing hERG.
Sequence of human ether-à-go-go-related gene (hERG) potassium channel (Q12809 whole entry, looked up): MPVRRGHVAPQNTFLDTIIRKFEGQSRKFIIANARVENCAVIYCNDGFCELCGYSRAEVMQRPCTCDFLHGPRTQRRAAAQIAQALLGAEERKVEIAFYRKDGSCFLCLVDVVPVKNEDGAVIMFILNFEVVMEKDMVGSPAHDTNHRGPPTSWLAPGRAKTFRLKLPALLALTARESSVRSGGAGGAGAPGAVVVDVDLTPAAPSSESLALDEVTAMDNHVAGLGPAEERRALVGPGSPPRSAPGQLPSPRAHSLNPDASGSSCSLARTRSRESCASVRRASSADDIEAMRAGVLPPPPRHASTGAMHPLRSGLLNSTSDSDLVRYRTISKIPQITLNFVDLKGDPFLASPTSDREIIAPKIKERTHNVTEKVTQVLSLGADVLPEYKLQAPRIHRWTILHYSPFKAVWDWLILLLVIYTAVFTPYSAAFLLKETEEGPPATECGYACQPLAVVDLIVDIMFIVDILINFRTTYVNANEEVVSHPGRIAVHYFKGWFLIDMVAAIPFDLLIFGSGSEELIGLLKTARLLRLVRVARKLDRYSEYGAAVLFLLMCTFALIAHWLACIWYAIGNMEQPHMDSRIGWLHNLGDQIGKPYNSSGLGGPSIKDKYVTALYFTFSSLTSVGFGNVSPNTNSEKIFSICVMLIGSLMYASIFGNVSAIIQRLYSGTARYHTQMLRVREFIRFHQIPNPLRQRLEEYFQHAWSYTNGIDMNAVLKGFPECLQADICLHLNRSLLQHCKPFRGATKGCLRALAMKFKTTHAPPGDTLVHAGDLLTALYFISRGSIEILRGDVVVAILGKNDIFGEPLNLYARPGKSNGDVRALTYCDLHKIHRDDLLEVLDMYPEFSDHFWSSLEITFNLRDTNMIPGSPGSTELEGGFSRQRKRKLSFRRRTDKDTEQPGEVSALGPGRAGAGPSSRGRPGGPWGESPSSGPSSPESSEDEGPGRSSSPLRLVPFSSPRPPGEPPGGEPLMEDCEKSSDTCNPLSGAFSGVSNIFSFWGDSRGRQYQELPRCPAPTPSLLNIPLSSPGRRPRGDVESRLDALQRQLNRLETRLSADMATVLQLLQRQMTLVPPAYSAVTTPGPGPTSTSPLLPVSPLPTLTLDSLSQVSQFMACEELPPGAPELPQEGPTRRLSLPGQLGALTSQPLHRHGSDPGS
For the compound `CC1=NN(C(=O)c2ccc(Cn3ccc([N+](=O)[O-])n3)cc2)C(O)(C(F)(F)F)C1` (centres unmarked), the “hERG current change (%, negative = inhibition) at 1uM” value worked out at 8.05%.
For `N#Cc1c(-c2ccc(Cl)cc2)c2c([nH]c1=O)-c1ccccc1OC2` the value was 9.71%; for `CN(NC(=O)c1ccccc1F)c1ccc([N+](=O)[O-])cn1`, 8.26%.
For `COC(=O)C(NS(=O)(=O)c1ccc(F)cc1)c1ccccc1` (centres unmarked) the value was 9.38%; for `CCOC(=O)c1[nH]cnc1C(=O)Nc1ccc(Cl)cc1`, 8.93%.
In the case of `O=C(COC(=O)COc1ccc(Cl)cc1)Nc1ccc2c(c1)OCCO2` it was 6.85%; in that of `Cn1c(O)c(/C=N/NC(=O)c2ccncc2)c(=O)[nH]c1=S`, 13.3%; in that of `CCCCC(=O)Nc1ncc(S(=O)(=O)c2ccc([N+](=O)[O-])cc2)s1`, 18%.
For the compound `CCc1ccc(S(=O)(=O)Nc2ccc(Br)cn2)cc1`, the “hERG current change (%, negative = inhibition) at 1uM” value is 6.9%.
In the case of `Cc1noc(C)c1COc1ccc(C(=O)NCCc2ccc(S(N)(=O)=O)cc2)cc1` it was -8.6%; in that of `COc1ccccc1NC(=S)N1CCN(c2ccccc2F)CC1`, 14.9%.
For `Cc1csc(=O)n1CC(=O)OCc1nnc(-c2ccccc2)o1` the value was 9.67%; for `COc1ccccc1C(CNC(=O)c1ccc(NS(=O)(=O)c2ccc(F)c(C)c2)cc1)N1CCCC1` (centres unmarked), -7.16%; for `N#Cc1c(N)nc(SCC(=O)NC2CCCCC2)c(C#N)c1-c1ccc(Cl)cc1`, 8.45%.
In the case of `COC(=O)c1c(C(=O)OC)c(-c2ccc(C)cc2)n2c1CCC2` it was 12.1%.
Regarding `COc1ccc(CNS(=O)(=O)c2c(C)[nH]c(C)c2C(=O)N2CCCC2)cc1`, the “hERG current change (%, negative = inhibition) at 1uM” value was 10.1%.
On to `CC(C)CN(C(=O)COC(=O)c1c2c(nc3ccccc13)CCC2)c1c(N)n(Cc2ccccc2)c(=O)[nH]c1=O`, for which the “hERG current change (%, negative = inhibition) at 1uM” value was found to be 12.7%.
As for `O=C(C/C=N/OCc1ccccc1F)c1cnc(-c2ccc(Cl)cc2)s1`, the “hERG current change (%, negative = inhibition) at 1uM” value is 19%.
For `O=S(=O)(CCc1nnc(-c2ccccc2)o1)c1ccc2ccccc2c1` the value was -0.566%; for `COc1cc2c(cc1OC)-c1nnc(-c3cccs3)n1C(C)(C)C2`, -11.4%.
For `Fc1ccc2c(c1)C(c1ccncc1)=NNC(c1ccc(Br)cc1)=N2` the value was 11.4%; for `COc1ccccc1N1CCN(CCCOc2ccc(F)cc2)CC1`, -60.3%.
In the case of `Cc1ccc(C(C(=O)NC(C)(C)C)N(Cc2cccnc2)C(=O)C(=O)NC2CCCCC2)o1` (centres unmarked) it was -2.42%.
